# Assay results taken from PubChem BioAssay AID2101 (National Center for Advancing Translational Sciences (NCATS), 2009).
# The campaign covered roughly 330,000 compounds. About 300 (0.091%) were called active. The shares of active, inactive and inconclusive entries below differ from those in the screen. Calls come from the whole dose curve; as a rule, active = well fitted inhibition curve with a large enough effect; inconclusive = small, poorly fitted or top-dose-only effect, or effect the other way, or another doubt; inactive = no such curve, though single readings can be large or run the other way. No potency is given beside an inconclusive call; the fits are too rough.
# Target: Lysosomal acid glucosylceramidase (Homo sapiens) (UniProt P04062)
# Assay: qHTS Assay for Inhibitors and Activators of N370S glucocerebrosidase as a Potential Chaperone Treatment of Gaucher Disease;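 for activity change, negative = inhibition: 0% = full enzyme activity and -100% = no enzyme basal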
# Settings: N370S GC spleen homogenate, 4MU-glucoside fluorescence; activity change, negative = inhibition: at 59.4 µM (top of the series) unless noted
# Potency is the fitted concentration of half-maximal effect.
Structure (SMILES),Potency,"activity change, negative = inhibition"
COC(=O)c1sc(N(C)C)c(C#N)c1-c1ccccc1,"inconclusive [activator, partial curve]",–
Nc1nc2ncc(CNc3ccc(C(=O)N[C@@H](CCC(=O)O)C(=O)O)cc3)nc2c(=O)[nH]1,"inconclusive [activator, partial curve]",–
N=c1c(C(=O)NC2CCCCC2)cc2c(=O)n3ccccc3nc2n1CC1CCCO1 (stereo not drawn),"inconclusive [activator, single point]",–
CCn1ccc(C(=O)Nc2sc3c(c2C(=O)OC)CCC3)n1,"inconclusive [activator, single point]",–
CC(=O)N(C)c1ccc(NC(=S)Nc2cccc3ccccc23)cc1,–,inactive: 1.65%
C=CCOC(=O)C1=C[C@H](c2cn(C(C)=O)c3ccccc23)C[C@H](OCc2ccc(CO)cc2)O1,"inconclusive [activator, partial curve]",–
O=C(N/N=C/c1ccccc1)C(=O)N/N=C/c1ccccc1,–,inactive: -4.1%
COc1cccc(C(=O)N/N=C(/c2ccccc2)c2ccccn2)c1,"inconclusive [activator, partial curve]",–
CCCCOc1ccc(NC(=O)C(=O)NCCCn2ccnc2)cc1,–,inactive: -0.0795%
COc1cccc(NC(=O)CN(C)C(=O)CCNC(=O)c2ccc(Br)cc2)c1,"inconclusive [activator, single point]",–
COc1cc2c(cc1NS(=O)(=O)N1CCCC1)oc1ccccc12,"inconclusive [activator, partial curve]",–
O=S(=O)(c1ccccc1)N1N=C(c2cccs2)CC1c1ccc(F)cc1 (stereo not drawn),–,inactive: 13.4%
COc1ccc(S(=O)(=O)N(CC(=O)Nc2ccc3c(c2)OCO3)c2ccccc2OC)cc1,"inconclusive [activator, single point]",–
CCC1Sc2ccc(S(=O)(=O)CCC(=O)Nc3ccc(OC(F)(F)F)cc3)cc2NC1=O (stereo not drawn),"inconclusive [inhibitor, partial curve]",–
COC(=O)c1ccccc1NCCO,"inconclusive [activator, single point]",–
OCC1OC(C#Cc2ccccc2)C=CC1OCc1ccccc1 (stereo not drawn),–,inactive: -6.3% [at 12.8 µM]
CCNc1oc(/C=C/c2ccc(OCC)cc2)nc1C#N,"inconclusive [activator, partial curve]",–
CCOc1ccc(N(CC(=O)NCCc2ccc(Cl)cc2)S(=O)(=O)c2c(C)[nH]c(=O)[nH]c2=O)cc1,active: 10 µM,–
COc1cccc(NC(=O)N2CCc3ccccc3C2)c1,–,inactive: -15.2%
Cc1ccccc1-c1nc(P(=O)(c2ccccc2)c2ccccc2)c(N2CCOCC2)o1,"inconclusive [activator, single point]",–
Cc1ccc(/C=C/C(=O)c2ccc(N3CCOCC3)cc2)s1,"inconclusive [activator, partial curve, poor fit]",–
c1cc2c(cc1C1CCCCC1)c1c3n2CCN[C@H]3CCC1,"inconclusive [inhibitor, single point]",–
CCCc1nnc(NC(=O)CCC(=O)Nc2ccc(F)cc2)s1,–,inconclusive: 30.1% [activator]

Structure (SMILES),Potency,"activity change, negative = inhibition"
COc1ccc(C(=O)NNc2ccccc2)cc1OC,–,inactive: 6.99%
Cc1ccc(C)c(OCC(=O)NC2CCCCCC2)c1,"inconclusive [activator, single point]",–
Cc1ccc(/C(O)=C/c2nc3ccccc3oc2=O)cc1,–,inactive: 1.74%
COCCN1C=C(C(=O)OC)C(c2ccccc2Cl)C(C(=O)OC)=C1,"inconclusive [activator, partial curve]",–
CCOc1ccc(NC(=O)CN2C(=O)COc3ccc(S(=O)(=O)N4CCCCC4)cc32)cc1,"inconclusive [inhibitor, single point]",–
O=C(O)c1cc(-c2ccc(Cl)s2)nc2ccccc12,–,inactive: 22.1%
OCCNc1c2ccccc2nc2c(F)c(F)c(F)c(F)c12,–,inactive: 1.72%
Cn1c(SCCOc2cccc(Cl)c2)nnc1-c1ccncc1,"inconclusive [activator, full curve, poor fit]",–
O[C@H](CN1CCN(c2cccc(Cl)c2)CC1)C(c1ccccc1)c1ccccc1,"inconclusive [inhibitor, partial curve]",–
CN1C/C(=C/c2cccnc2)C(=O)/C(=C/c2cccnc2)C1,–,inactive: 1.77%
CCC(=O)Oc1oc(-c2ccccc2)nc1C=Nc1ccc(C)cc1,"inconclusive [inhibitor, single point]",–
O=C(NC1CCCCC1)N(Cc1nc2ccccc2c(=O)[nH]1)C1CCCC1,"inconclusive [activator, partial curve]",–
O=C1OC(N2C(=O)CC[C@H]2C(=O)Nc2ccc3c(c2)OCO3)c2ccccc21 (stereo partly drawn),–,inactive: -0.299%
O=C(CCCn1c(SCC(=O)c2ccc(O)c(O)c2)nc2ccccc2c1=O)NCC1CCCO1 (stereo not drawn),–,inactive: 3.12%
O=C(NCc1ccccc1)C1=C[C@H](c2coc3ccccc3c2=O)C[C@H](OCc2ccc(CO)cc2)O1,"inconclusive [activator, partial curve]",–
COc1ccc(OCc2nnc3n2N=C(c2ccc(Br)cc2)CS3)cc1,–,inactive: 5.01%
Cc1cc(C(=O)OCC(=O)Nc2c(Cl)cccc2C(F)(F)F)c(C)o1,"inconclusive [inhibitor, single point]",–
Ic1ccc(N2CCN(Cc3c[nH]c4ncccc34)CC2)cc1,"inconclusive [inhibitor, full curve, poor fit]",–
C[C@H]1O[C@@H](n2cnc3c(N)ncnc32)C[C@@H]1OP(=O)(O)OP(=O)(O)OP(=O)(O)O,–,inactive: -3.97%
O=C(NC(=S)Nc1cc(C(F)(F)F)ccc1N1CCOCC1)c1ccco1,"inconclusive [activator, partial curve]",–
CNc1nc(-c2ccccc2C(F)(F)F)nc2ccccc12,"inconclusive [inhibitor, partial curve, poor fit]",–
O=C(Nc1ccc([N+](=O)[O-])cc1)c1cc(Cl)sc1Cl,"inconclusive [inhibitor, partial curve, poor fit]",–
COc1ccc(C(=O)CSc2nnc(C3CCCCC3)n2N)c(OC)c1,"inconclusive [activator, single point]",–

Structure (SMILES),Potency,"activity change, negative = inhibition"
COCCNC(=O)c1c(N)n(-c2ccccc2)c2nc3ccccc3nc12,"inconclusive [activator, single point]",–
O=C(Oc1ccccc1C(=O)Nc1ccccc1)c1ccccc1Br,–,inactive: 21.2%
COc1ccc(NS(=O)(=O)c2cccc(C(=O)NNC(=O)c3cc(S(N)(=O)=O)ccc3OC)c2)cc1,"inconclusive [inhibitor, full curve, poor fit]",–
CCCCn1c(=O)[nH]c(=O)c2c1nc(-c1ccc(OC)c(Br)c1)n2CC(C)C,"inconclusive [activator, single point]",–
CC(C)c1ccc2c(c1)CCC1C(C)(CN)CCCC21C (stereo not drawn),"inconclusive [inhibitor, partial curve]",–
COc1ccc(C(=O)N(Cc2nc(-c3ccc(C)cc3)no2)C(C)C)cc1OC,"inconclusive [activator, partial curve]",–
Cc1cccc(-n2c(SCCC(=O)O)nnc2-c2cccs2)c1C,–,inactive: 3.33%
CN(CCOCCOc1ccc(Cl)cc1Br)Cc1ccccc1,"inconclusive [inhibitor, partial curve]",–
CC(CCc1ccccc1)NC(=S)NC(=O)c1ccco1 (stereo not drawn),"inconclusive [activator, partial curve]",–
COc1ccccc1N(CC(=O)NC1CCCCC1)C(=O)CNC(=O)c1cccs1,"inconclusive [inhibitor, single point]",–
Cc1cc(C)c2c(c1)-c1cc(C)nn1C(c1ccc3c(c1)OCO3)N2 (stereo not drawn),"inconclusive [activator, single point]",–
COc1ccc(CCNC(=O)c2ccc3c(c2)N(Cc2ccc(C)cc2)CCS3)cc1OC,"inconclusive [activator, full curve, poor fit]",–
CCOc1ccc(C2OC34CCCCC3C(C#N)(C#N)C2(C#N)C(=N)O4)cc1OC (stereo not drawn),"inconclusive [activator, single point]",–
CCCn1c(CNC(=O)c2ccccc2)nc2ccccc21,"inconclusive [inhibitor, full curve, poor fit]",–
O=C(Nc1ccc(OCc2ccccc2)cc1)Nc1cccnc1,"inconclusive [inhibitor, partial curve]",–
O=C(Cc1ccc(Cl)cc1)Nc1ccccc1Sc1ccccc1,"inconclusive [activator, partial curve, poor fit]",–
CCc1cccc(N(C)C(N)=Nc2cccc3ccccc23)c1,active: 12.6 µM,–
Cc1cc(C)cc(NC(=S)NCCSc2ccc(Cl)cc2)c1,"inconclusive [activator, single point]",–
O=C(c1cc2sccc2n1Cc1ccccc1)N1CCc2ccccc21,"inconclusive [activator, partial curve]",–
c1ccc(-c2onc3cc4c(cc23)OCCO4)cc1,"inconclusive [activator, partial curve]",–
Cc1ccccc1CSCC(=O)NC(=O)NCc1ccco1,–,inconclusive: 38.7% [activator]
Cc1cc(Nc2ccccc2N2CCOCC2)n2ncnc2n1,–,inconclusive: 31.4% [activator]
